Each block holds one binder with its values, some of them ahead of it.
How the values were obtained:
[1] = molecular target: T1, ErbB3 (ErbB3 ECD/FC Chimera-His tag, R&D 348-RB-050) (UniProt P21860 in part, limits assumed); test: direct bind ELISA, coated antigen; C-terminal VD of DVD-Ig
T1 construct: extracellular domain; Bought antigen coated on the ELISA plate

PlGF = molecular target: T2, PlGF (UniProt P49763-2 21-149, limits assumed); test: direct bind ELISA, C-terminal VD
T2 construct: bought antigen coated on the ELISA plate; also called Placental GF
T2 sequence (looked up): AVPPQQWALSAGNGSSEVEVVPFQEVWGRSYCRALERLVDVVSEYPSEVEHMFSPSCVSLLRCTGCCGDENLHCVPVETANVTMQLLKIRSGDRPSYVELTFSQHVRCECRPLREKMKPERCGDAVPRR

IGF1 (IGF-I) = molecular target: T3, IGF1 (IGF-I) (UniProt P05019 in part); test: Direct Bind ELISA, antigen on plate; C-terminal VD; first value of IGF1/IGF2 cell
T3 construct: Bought reagent

IGF2 (IGF-2) = molecular target: T4, IGF2 (IGF-2) (UniProt P01344 in part); test: Direct Bind ELISA, antigen on plate; C-terminal VD; second value of IGF1/IGF2 cell
T4 construct: Bought reagent

[2] = molecular target: T5, IGF1R (antigen of the capture ELISA table) (UniProt P08069 31-932, limits assumed); test: antigen capture ELISA, IGF1R; C-terminal VD
T5 construct: No IGF1R capture ELISA method is described; also called IGFR

[3] = molecular target: biotin-labeled human IGF2 (human, UniProt P01344 in part, biotin-labeled); test: capture ELISA, DVD-Ig captured by anti-human Fc, biotin-labeled IGF2; C-terminal VD
[4] = molecular target: biotin-labeled human IGF1 (human, UniProt P05019 in part, biotin-labeled); test: capture ELISA, DVD-Ig captured by anti-human Fc, biotin-labeled IGF1; C-terminal VD
IGF-I = molecular target: T6, IGF-I (UniProt P05019 in part); test: Biacore SPR
T6 construct: Bought reagent; also called IGF1

IGF-2 = molecular target: T7, IGF-2 (UniProt P01344 in part); test: Biacore SPR
T7 construct: Bought reagent

B1: DVD412 (bispecific antibody, human IgG1, lambda)
heavy: [omitted - about 120 residues]ASTKGPEVQLLESGGGLVQPGGSLRLSCAASGFTFSHYVMAWVRQAPGKGLEWVSSISSSGGWTLYADSVKGRFTISRDNSKNTLYLQMNSLRAEDTAVYYCTRGLKMATIFDYWGQGTLVTVSS[omitted - human IgG1 constant region]
light: [omitted - about 100 residues]RTVAAPQSALTQPASVSGSPGQSITISCTGTSSDVGSYNVVSWYQQHPGKAPKLIIYEVSQRPSGVSNRFSGSKSGNTASLTISGLQTEDEADYYCCSYAGSSIFVIFGGGTKVTVLGQPKAAPSVTLFPPSSEELQANKATLVCLISDFYPGAVTVAWKADSSPVKAGVETTTPSKQSNNKYAASSYLSLTPEQWKSHRSYSCQVTHEGSTVEKTVAPTECS
notes: DVD-Ig; HC linker short, LC linker short; also called DVD412H; DVD412L
EC50 [1]: 206 nM

B3: DVD420 (bispecific antibody, human IgG1, lambda)
heavy: [omitted - about 120 residues]ASTKGPSVFPLAPEVQLLESGGGLVQPGGSLRLSCAASGFTFSHYVMAWVRQAPGKGLEWVSSISSSGGWTLYADSVKGRFTISRDNSKNTLYLQMNSLRAEDTAVYYCTRGLKMATIFDYWGQGTLVTVSS[omitted - human IgG1 constant region]
light: [omitted - about 100 residues]RTVAAPQSALTQPASVSGSPGQSITISCTGTSSDVGSYNVVSWYQQHPGKAPKLIIYEVSQRPSGVSNRFSGSKSGNTASLTISGLQTEDEADYYCCSYAGSSIFVIFGGGTKVTVLGQPKAAPSVTLFPPSSEELQANKATLVCLISDFYPGAVTVAWKADSSPVKAGVETTTPSKQSNNKYAASSYLSLTPEQWKSHRSYSCQVTHEGSTVEKTVAPTECS
notes: DVD-Ig; HC linker long, LC linker short; also called DVD420H; DVD420L
EC50 [1]: 144 nM

B4: DVD416 (bispecific antibody, human IgG1, kappa, lambda)
heavy: [omitted - about 120 residues]ASTKGPSVFPLAPEVQLLESGGGLVQPGGSLRLSCAASGFTFSHYVMAWVRQAPGKGLEWVSSISSSGGWTLYADSVKGRFTISRDNSKNTLYLQMNSLRAEDTAVYYCTRGLKMATIFDYWGQGTLVTVSS[omitted - human IgG1 constant region]
light: [omitted - about 100 residues]RTVAAPSVFIFPPQSALTQPASVSGSPGQSITISCTGTSSDVGSYNVVSWYQQHPGKAPKLIIYEVSQRPSGVSNRFSGSKSGNTASLTISGLQTEDEADYYCCSYAGSSIFVIFGGGTKVTVLGQPKAAPSVTLFPPSSEELQANKATLVCLISDFYPGAVTVAWKADSSPVKAGVETTTPSKQSNNKYAASSYLSLTPEQWKSHRSYSCQVTHEGSTVEKTVAPTECS
notes: DVD-Ig; HC linker long, LC linker long; also called DVD416H; DVD416L
EC50 [1]: 64.4 nM

B6: DVD029 (HER-2 (seq. 1) and IGF1,2 DVD-Ig) (bispecific antibody, IgG1)
VH: [omitted - about 120 residues]ASTKGPQVQLVQSGAEVKKPGASVKVSCKASGYTFTSYDINWVRQATGQGLEWMGWMNPNSGNTGYAQKFQGRVTMTRNTSISTAYMELSSLRSEDTAVYYCARDPYYYYYGMDVWGQGTTVTVSS
VL: [omitted - about 100 residues]RTVAAPQSVLTQPPSVSAAPGQKVTISCSGSSSNIENNHVSWYQQLPGTAPKLLIYDNNKRPSGIPDRFSGSKSGTSATLGITGLQTGDEADYYCETWDTSLSAGRVFGGGTKLTVLG
notes: HC vector V1 (wild-type hIgG1 constant), LC vector V5 (kappa signal peptide, lambda constant); also called DVD029L
EC50 (IGF1 (IGF-I)): 229 nM
EC50 (IGF2 (IGF-2)): 206 nM

B7: DVD031 (bispecific antibody, human IgG1, kappa)
heavy: [omitted - about 120 residues]ASTKGPEVQLLESGGGLVQPGGSLRLSCTASGFTFSSYAMNWVRQAPGKGLEWVSAISGSGGTTFYADSVKGRFTISRDNSRTTLYLQMNSLRAEDTAVYYCAKDLGWSDSYYYYYGMDVWGQGTTVTVSS[omitted - human IgG1 constant region]
light: [omitted - about 100 residues]RTVAAPDIQMTQFPSSLSASVGDRVTITCRASQGIRNDLGWYQQKPGKAPKRLIYAASRLHRGVPSRFSGSGSGTEFTLTISSLQPEDFATYYCLQHNSYPCSFGQGTKLEIKRTVAAPSVFIFPPSDEQLKSGTASVVCLLNNFYPREAKVQWKVDNALQSGNSQESVTEQDSKDSTYSLSSTLTLSKADYEKHKVYACEVTHQGLSSPVTKSFNRGEC
notes: DVD-Ig; also called HER-2 / IGF1R DVD-Ig; DVD031H
EC50 [2]: 171 nM

B11: DVD029 (bispecific antibody, human IgG1, lambda)
heavy: [omitted - about 120 residues]ASTKGPQVQLVQSGAEVKKPGASVKVSCKASGYTFTSYDINWVRQATGQGLEWMGWMNPNSGNTGYAQKFQGRVTMTRNTSISTAYMELSSLRSEDTAVYYCARDPYYYYYGMDVWGQGTTVTVSS[omitted - human IgG1 constant region]
light: [omitted - about 100 residues]RTVAAPQSVLTQPPSVSAAPGQKVTISCSGSSSNIENNHVSWYQQLPGTAPKLLIYDNNKRPSGIPDRFSGSKSGTSATLGITGLQTGDEADYYCETWDTSLSAGRVFGGGTKLTVLGQPKAAPSVTLFPPSSEELQANKATLVCLISDFYPGAVTVAWKADSSPVKAGVETTTPSKQSNNKYAASSYLSLTPEQWKSHRSYSCQVTHEGSTVEKTVAPTECS
notes: also called HER-2 / IGF1,2 DVD-Ig; DVD029H
EC50 [3]: 206 nM
EC50 [4]: 229 nM

B12: DVD029 (bispecific antibody, human IgG1, lambda)
heavy: [omitted - about 120 residues]ASTKGPQVQLVQSGAEVKKPGASVKVSCKASGYTFTSYDINWVRQATGQGLEWMGWMNPNSGNTGYAQKFQGRVTMTRNTSISTAYMELSSLRSEDTAVYYCARDPYYYYYGMDVWGQGTTVTVSS[omitted - human IgG1 constant region]
light: [omitted - about 100 residues]RTVAAPQSVLTQPPSVSAAPGQKVTISCSGSSSNIENNHVSWYQQLPGTAPKLLIYDNNKRPSGIPDRFSGSKSGTSATLGITGLQTGDEADYYCETWDTSLSAGRVFGGGTKLTVLGQPKAAPSVTLFPPSSEELQANKATLVCLISDFYPGAVTVAWKADSSPVKAGVETTTPSKQSNNKYAASSYLSLTPEQWKSHRSYSCQVTHEGSTVEKTVAPTECS
notes: also called DVD029H; DVD029L
Kd (IGF-I): 6.36 nM
koff (IGF-I): 0.000423 s⁻¹
kon (IGF-I): 66500 M⁻¹ s⁻¹
Kd (IGF-2): 0.302 nM
koff (IGF-2): 3.15e-05 s⁻¹
kon (IGF-2): 104000 M⁻¹ s⁻¹

Second part, the binder after the results:

EC50 [1]: 40.7 nM
B2: DVD424 (bispecific antibody, human IgG1, kappa, lambda)
heavy: [omitted - about 120 residues]ASTKGPEVQLLESGGGLVQPGGSLRLSCAASGFTFSHYVMAWVRQAPGKGLEWVSSISSSGGWTLYADSVKGRFTISRDNSKNTLYLQMNSLRAEDTAVYYCTRGLKMATIFDYWGQGTLVTVSS[omitted - human IgG1 constant region]
light: [omitted - about 100 residues]RTVAAPSVFIFPPQSALTQPASVSGSPGQSITISCTGTSSDVGSYNVVSWYQQHPGKAPKLIIYEVSQRPSGVSNRFSGSKSGNTASLTISGLQTEDEADYYCCSYAGSSIFVIFGGGTKVTVLGQPKAAPSVTLFPPSSEELQANKATLVCLISDFYPGAVTVAWKADSSPVKAGVETTTPSKQSNNKYAASSYLSLTPEQWKSHRSYSCQVTHEGSTVEKTVAPTECS
notes: DVD-Ig; HC linker short, LC linker long; also called DVD424H; DVD424L

EC50 (PlGF): 0.24 nM
B5: DVD556 (bispecific antibody, human IgG1, kappa)
heavy: [omitted - about 120 residues]ASTKGPSVFPLAPQVQLKQSGPGLVQPSQSLSITCTVSGFSLTTYGIHWVRQSPGKGLEWLGVMWSGGDTDYDAAFISRLSISKDNSKSQVFFKMNSLQANDTGIYYCARYRFYGMDYWGQGTSVTVSS[omitted - human IgG1 constant region]
light: [omitted - about 100 residues]RTVAAPSVFIFPPAIQMTQSSSSFSVSLGDRVTITCKASEDIYNRFAWYQQKPGNAPRLLISGAASLEAGVPSRFSGSGSGQDYTLSITSLQTEDVATYYCQQYWSTPWTFGGGTKLEIKRTVAAPSVFIFPPSDEQLKSGTASVVCLLNNFYPREAKVQWKVDNALQSGNSQESVTEQDSKDSTYSLSSTLTLSKADYEKHKVYACEVTHQGLSSPVTKSFNRGEC
notes: HC linker long, LC linker long; also called DVD-Ig DVD556

EC50 (PlGF): 7.42 nM
B8: DVD548 (bispecific antibody, human IgG1, kappa)
heavy: [omitted - about 120 residues]ASTKGPQVQLKQSGPGLVQPSQSLSITCTVSGFSLTTYGIHWVRQSPGKGLEWLGVMWSGGDTDYDAAFISRLSISKDNSKSQVFFKMNSLQANDTGIYYCARYRFYGMDYWGQGTSVTVSS[omitted - human IgG1 constant region]
light: [omitted - about 100 residues]RTVAAPAIQMTQSSSSFSVSLGDRVTITCKASEDIYNRFAWYQQKPGNAPRLLISGAASLEAGVPSRFSGSGSGQDYTLSITSLQTEDVATYYCQQYWSTPWTFGGGTKLEIKRTVAAPSVFIFPPSDEQLKSGTASVVCLLNNFYPREAKVQWKVDNALQSGNSQESVTEQDSKDSTYSLSSTLTLSKADYEKHKVYACEVTHQGLSSPVTKSFNRGEC
notes: HC linker short, LC linker short; also called DVD-Ig DVD548

EC50 (PlGF): 1.37 nM
B9: DVD564 (bispecific antibody, human IgG1, kappa)
heavy: [omitted - about 120 residues]ASTKGPSVFPLAPQVQLKQSGPGLVQPSQSLSITCTVSGFSLTTYGIHWVRQSPGKGLEWLGVMWSGGDTDYDAAFISRLSISKDNSKSQVFFKMNSLQANDTGIYYCARYRFYGMDYWGQGTSVTVSS[omitted - human IgG1 constant region]
light: [omitted - about 100 residues]RTVAAPAIQMTQSSSSFSVSLGDRVTITCKASEDIYNRFAWYQQKPGNAPRLLISGAASLEAGVPSRFSGSGSGQDYTLSITSLQTEDVATYYCQQYWSTPWTFGGGTKLEIKRTVAAPSVFIFPPSDEQLKSGTASVVCLLNNFYPREAKVQWKVDNALQSGNSQESVTEQDSKDSTYSLSSTLTLSKADYEKHKVYACEVTHQGLSSPVTKSFNRGEC
notes: HC linker long, LC linker short; also called DVD-Ig DVD564

EC50 (PlGF): 2.34 nM
B10: DVD572 (bispecific antibody, human IgG1, kappa)
heavy: [omitted - about 120 residues]ASTKGPQVQLKQSGPGLVQPSQSLSITCTVSGFSLTTYGIHWVRQSPGKGLEWLGVMWSGGDTDYDAAFISRLSISKDNSKSQVFFKMNSLQANDTGIYYCARYRFYGMDYWGQGTSVTVSS[omitted - human IgG1 constant region]
light: [omitted - about 100 residues]RTVAAPSVFIFPPAIQMTQSSSSFSVSLGDRVTITCKASEDIYNRFAWYQQKPGNAPRLLISGAASLEAGVPSRFSGSGSGQDYTLSITSLQTEDVATYYCQQYWSTPWTFGGGTKLEIKRTVAAPSVFIFPPSDEQLKSGTASVVCLLNNFYPREAKVQWKVDNALQSGNSQESVTEQDSKDSTYSLSSTLTLSKADYEKHKVYACEVTHQGLSSPVTKSFNRGEC
notes: HC linker short, LC linker long; also called DVD-Ig DVD572

Source: patent US20100260668A1 (published 2010)
